Data from the supplement of paper PMC4166925.
± gives the standard deviation of the averaged measurements. In all, about 33,000 sequences were measured (“E-score (dimensionless, -0.5 to 0.5)”: median about -0.049, highest 2% from about 0.37 on). Some of the results follow.

System: T1, PmTbr T-box DNA-binding domain (GST fusion)
T1 sequence: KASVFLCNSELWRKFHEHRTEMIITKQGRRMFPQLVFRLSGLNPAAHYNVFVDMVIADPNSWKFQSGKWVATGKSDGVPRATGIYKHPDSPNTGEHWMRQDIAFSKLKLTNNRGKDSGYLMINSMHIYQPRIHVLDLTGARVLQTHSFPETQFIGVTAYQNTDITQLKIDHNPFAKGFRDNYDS
Assay: PBM E-score of 8-mer (E-score (dimensionless, -0.5 to 0.5)); Tbr is Tbrain of the sea star Patiria miniata (Pm) or the sea urchin Strongylocentrotus purpuratus (Sp); higher = stronger binding preference; most listed sequences are background and not binding sites
Conditions: the construct has about 5 more residues each side
Method in brief: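 Universal Agilent oligonucleotide arrays, made double-stranded by primer extension, were incubated with 200 nM GST-fused Tbr T-box DNA-binding domain in PBS (pH 7.5). The protein was expressed in BL21 E. coli at 20 °C and purified by glutathione affinity chromatography. After scanning and quantification, the Universal PBM Analysis Suite assigned an enrichment E-score to each ungapped 8-mer, averaged over duplicate arrays.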

Sequence	PBM E-score of 8-mer
ACCCGATG	0.0862 ± 0.066
GCACAGCC	-0.192 ± 0.031
CCAAACGC	-0.00129 ± 0.091
TGGGTAAA	-0.193 ± 0.0075
ACGTTGTG	0.2261 ± 0.00085
CGGCGACA	0.273 ± 0.051
AATGGGAG	-0.17 ± 0.027
GACTCCGA	-0.194 ± 0.0059
GAGAAATC	0.0536 ± 0.11
ACGTCTCC	-0.136 ± 0.022
AATAAACA	0.148 ± 0.041
AGGTGGGA	0.418 ± 0.01
ACCGCTGA	-0.11 ± 0.026
GGCATATA	-0.256 ± 0.055
GTTCCAAA	-0.156 ± 0.071
CTAGGGTA	-0.328 ± 0.063
ACCTCGAC	0.216 ± 0.043
AATAGCAG	0.0584 ± 0.0017
AATCGGTG	-0.0247 ± 0.033
ATTCTATC	-0.144 ± 0.022
AGGACACC	0.345 ± 0.027
GATCATGC	-0.0264 ± 0.02
AGCCGGTG	0.0219 ± 0.0037
ATCCTACC	-0.13 ± 0.02
CTCGCAGA	0.00155 ± 0.054

Sequence	PBM E-score of 8-mer
ACGTCCAT	-0.04106 ± 4.2e-05
GAGGGTAC	-0.11 ± 0.064
AGGTGATC	0.219 ± 0.0025
GGAATTGA	-0.13189 ± 9.9e-05
ACTAATGA	-0.144 ± 0.13
GGGTTACA	-0.179 ± 0.0048
ACGTATTA	-0.0687 ± 0.0068
CACTCGTA	0.0795 ± 0.0099
TCCGCTCA	-0.184 ± 0.04
ATTGAAAC	-0.158 ± 0.087
GCACCTTA	0.4187 ± 0.0021
CAGGATTC	-0.0235 ± 0.064
CGATCACG	0.168 ± 0.025
CGGCCACG	0.0073 ± 0.043
CGCGAAGC	0.2393 ± 0.0015
ACAGTCTC	0.0743 ± 0.035
AGCGCAGG	-0.163 ± 0.13
ACTTAGAG	-0.0215 ± 0.051
CGGACTAC	-0.213 ± 0.016
CAGCAGGC	-0.125 ± 0.0037
GTAGTCGA	-0.0608 ± 0.0079
AGTACATG	-0.133 ± 0.045
ACCTGACA	0.29667 ± 0.00013
GGGTGTAC	-0.0259 ± 0.052
ATTACTGG	-0.132 ± 0.041

Sequence	PBM E-score of 8-mer
ACTATGTG	0.102 ± 0.042
CCCAGTCA	-0.262 ± 0.073
CCGGATCC	-0.271 ± 0.066
ACTTCCGG	-0.0692 ± 0.034
CAGCGGTC	-0.115 ± 0.056
ACCTGAAA	0.023 ± 0.055
AAGGGAGC	0.123 ± 0.0022
GATAAAGC	0.0553 ± 0.011
AAGCATGT	-0.0455 ± 0.031
CCGTCTGC	0.141 ± 0.028
AGCCAAAT	0.00634 ± 0.039
AAATGTCG	0.0404 ± 0.0069
ACAACGAG	0.0277 ± 0.0065
ATGCGGTA	-0.121 ± 0.02
TATTACAA	0.0194 ± 0.0049
AATCTCAT	-0.0261 ± 0.042
CTAGGGGA	-0.189 ± 0.022
CAGTCACA	0.339 ± 0.016
CTGGTGTC	0.341 ± 0.023
CACAATCC	-0.0177 ± 0.053
AAGGAGCA	-0.28 ± 0.022
CTCGACAG	0.244 ± 0.018
ACTCACGA	0.144 ± 0.023
ATTTTTAG	-0.0822 ± 0.052
CGGAAAGA	-0.139 ± 0.012

Sequence	PBM E-score of 8-mer
GAGCTGCC	0.123 ± 0.0068
CCAAACTA	-0.138 ± 0.047
AACGAACT	0.0659 ± 0.024
TCGTCGCA	0.102 ± 0.051
GACACTGC	0.2169 ± 0.0019
CCATAACC	0.0419 ± 0.054
ATGAGGCG	0.184 ± 0.042
ATCGGTTG	0.0656 ± 0.046
ACGATAGT	-0.0352 ± 0.053
CTGGGGGC	-0.275 ± 0.0059
AGCAATGA	0.00566 ± 0.013
GGAGTTCA	-0.0635 ± 0.036
TGATCACA	0.20944 ± 9.2e-05
AGCAACGG	-0.163 ± 0.049
CGAATTCA	-0.0114 ± 0.029
CCTACGTA	-0.197 ± 0.035
AAATGGCG	0.0605 ± 0.034
CTGGATCA	-0.111 ± 0.0046
CGGCAATA	-0.0175 ± 0.065
TAGAACTA	-0.0862 ± 0.013
AGCCAGGC	-0.216 ± 0.046
CAGTTCCG	-0.0851 ± 0.031
AAATTTGG	-0.185 ± 0.14
ATAAGCGC	0.218 ± 0.0082
ATGAGTCC	-0.202 ± 0.0074

Sequence	PBM E-score of 8-mer
AGAGCCAT	-0.163 ± 0.06
GCCAGTCC	-0.117 ± 0.051
AGACCCCG	-0.0473 ± 0.033
CTGCACTC	-0.0897 ± 0.008
GACAAAGC	0.0872 ± 0.0053
AATGAGGG	-0.21 ± 0.035
CTTGCACA	0.148 ± 0.026
CCCACGTC	-0.0655 ± 0.019
CGCGGCAG	0.0429 ± 0.039
ACTGTTTC	-0.0724 ± 0.082
AGCCCGAC	-0.126 ± 0.05
ACCTATCT	0.15 ± 0.034
GATCGAGC	-0.253 ± 0.065
GACCCCTA	-0.11 ± 0.035
TATCGATA	-0.108 ± 0.068
ACCTGGAT	0.026 ± 0.0051
AGCCTAAG	-0.108 ± 0.041
ACGCGTAT	0.147 ± 0.035
GGAGTAGA	-0.154 ± 0.034
GTTGTCTA	-0.1018 ± 0.00021
ATCGACAG	0.236 ± 0.032
CACACAGA	-0.0151 ± 0.021
AACCTATA	-0.0111 ± 0.13
AGCTGGTC	-0.199 ± 0.037
CGTCTAAG	-0.0183 ± 0.056

Sequence	PBM E-score of 8-mer
CCAAGACG	-0.0419 ± 0.0058
ACTGTCCA	-0.0882 ± 0.041
CTTGTCGA	0.182 ± 0.013
AGTGGTCA	0.0999 ± 0.044
ATGAGGTC	-0.00428 ± 0.033
CAAACGAA	-0.00967 ± 0.022
CCACCCGG	0.0506 ± 0.048
AACAAACT	-0.102 ± 0.032
ACTCAAAG	-0.0361 ± 0.027
CCTCGACC	-0.0573 ± 0.087
CTCAGCGA	0.15 ± 0.068
AGCAAGCC	-0.179 ± 0.019
CCGGATGA	-0.278 ± 0.0076
AAGCGTGA	0.401 ± 0.018
ACATGCAG	-0.0628 ± 0.047
CTACCGAG	-0.0515 ± 0.0037
CTTTAATA	-0.23 ± 0.028
AGACAAAC	0.00019 ± 0.011
CGTCGAAC	-0.0874 ± 0.071
CTAGTGGC	-0.0119 ± 0.017
AACAGGTA	0.126 ± 0.015
AATAGGCC	-0.231 ± 0.066
CAGATCCG	-0.0367 ± 0.13
AAATAGCC	-0.0974 ± 0.016
CACAACTG	0.225 ± 0.0095

Sequence	PBM E-score of 8-mer
GGCAGCAC	0.165 ± 0.059
CTTGGAAC	-0.257 ± 0.017
GGTCCGGA	-0.105 ± 0.037
CGATGTTC	0.0373 ± 0.08
GCGGCGCA	-0.0677 ± 0.08
ATTGGTGC	0.256 ± 0.015
GAACAAGA	-0.0306 ± 0.044
CTATACAA	-0.216 ± 0.054
TAATAATA	-0.151 ± 0.11
CGGAGCGC	0.108 ± 0.013
GTTCTGAA	-0.247 ± 0.048
TAGGCTCA	0.00615 ± 0.049
CAGCACCA	0.0936 ± 0.032
TCTTGACA	0.316 ± 0.012
ACTAAGTG	0.254 ± 0.016
CGGTCTAA	-0.146 ± 0.036
CGGGCGTA	-0.0486 ± 0.018
GAGGAGCA	-0.318 ± 0.016
ATCGTTTC	0.134 ± 0.0054
CCAGAACA	-0.0746 ± 0.061
GCAAAGCC	-0.0731 ± 0.023
AAAACTAG	-0.252 ± 0.11
